# Measurements from the supplement of paper PMC10037445.
# Values joined by “and” are separate entries in the source; they are usually repeats but may differ in a detail not shown here. Identical values can stand only once. Whole data set: some 2,900 compounds, median “IRF Lucia reporter activity, fold change vs agonist alone” near 0.9, cut for the highest 2% near 2.8. The list shows a part of the results.
# What was measured:
# RAW-Dual [1] = assay: IRF Lucia reporter activity, fold change vs agonist alone; higher = enhanced IRF activity; conditions: library stock concentration (final ~1000-fold dilution): 10 mM, agonist: MPLA (TLR4) […]
# Summary of the method: (§1)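 RAW-Dual macrophages were seeded in DMEM at 50,000 cells/well in 384-well plates, given 50 nL of library stock by pin tool, and given a PRR agonist 1 h later. Plates were held at 37 °C, 5% CO2 for 20 hours, after which supernatant was read for IRF by QuantiLuc luminescence and for NF-κB by QuantiBlue absorbance at 620 nm. Reporter activity is expressed as fold change over wells that received agonist alone. A well was called cytotoxic when IncuCyte confluency fell below 70% of agonist controls in both mask sets.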
# RAW-Dual [2] = assay: IRF Lucia reporter activity, fold change vs agonist alone; cytotoxicity flag (confluency mask): not cytotoxic; higher = enhanced IRF activity
# Summary of the method: as §1
# RAW-Dual [3] = assay: IRF Lucia reporter activity, fold change vs agonist alone; cytotoxicity flag (confluency mask): cytotoxic (confluency <70% of control); higher = enhanced IRF activity
# Summary of the method: as §1
# [4] = cytotoxicity flag (confluency mask): cytotoxic (confluency <70% of control)
# [5] = cytotoxicity flag (confluency mask): not cytotoxic
# [6] = agonist: 3'3'-cGAMP (STING) 10 ug/mL
smiles,measurement,setting,value
Cl.ClCCN(Cc1ccccc1)Cc1ccccc1,IRF Lucia reporter activity,RAW-Dual [1]; [4],0.101
COc1ccc(C(CN(C)C)C2(O)CCCCC2)cc1.Cl (stereo unspecified),IRF Lucia reporter activity,RAW-Dual [1]; [5],0.528
COc1ccc(C(CN(C)C)C2(O)CCCCC2)cc1.Cl (stereo unspecified) (library stock concentration (final ~1000-fold dilution): 10 mM),IRF Lucia reporter activity,RAW-Dual [2]; [6],0.779
same,IRF Lucia reporter activity,RAW-Dual [2]; agonist: LPS (TLR4) 0.1 ug/mL,0.837
O=c1ccc2cc3ccoc3c(O)c2o1 (library stock concentration (final ~1000-fold dilution): 10 mM),IRF Lucia reporter activity,RAW-Dual [2]; [6],0.801 and 0.941
same,IRF Lucia reporter activity,RAW-Dual [2]; agonist: LPS (TLR4) 0.1 ug/mL,0.906 and 0.766
Br.CN1C2CC(OC(=O)C(CO)c3ccccc3)CC1C1OC12 (stereo unspecified),IRF Lucia reporter activity,RAW-Dual [1]; [5],1.07
Br.CN1C2CC(OC(=O)C(CO)c3ccccc3)CC1C1OC12 (stereo unspecified) (library stock concentration (final ~1000-fold dilution): 10 mM),IRF Lucia reporter activity,RAW-Dual [2]; [6],1.01
same,IRF Lucia reporter activity,RAW-Dual [2]; agonist: LPS (TLR4) 0.1 ug/mL,1.02
O=C([O-])C(Cl)Cl.[Na+] (library stock concentration (final ~1000-fold dilution): 10 mM),IRF Lucia reporter activity,RAW-Dual [2]; [6],1.12 and 0.935
same,IRF Lucia reporter activity,RAW-Dual [2]; agonist: LPS (TLR4) 0.1 ug/mL,1.12 and 1.18
CC(O)(CS(=O)(=O)c1ccc(F)cc1)C(=O)Nc1ccc(C#N)c(C(F)(F)F)c1 (stereo unspecified),IRF Lucia reporter activity,RAW-Dual [1]; [5],1.1
CC(O)(CS(=O)(=O)c1ccc(F)cc1)C(=O)Nc1ccc(C#N)c(C(F)(F)F)c1 (stereo unspecified) (library stock concentration (final ~1000-fold dilution): 10 mM),IRF Lucia reporter activity,RAW-Dual [2]; [6],1.11
same,IRF Lucia reporter activity,RAW-Dual [2]; agonist: LPS (TLR4) 0.1 ug/mL,1.08
CC(Nc1ncnc2nc[nH]c12)c1nc2ccc(F)cc2c(=O)n1-c1ccccc1 (stereo unspecified),IRF Lucia reporter activity,RAW-Dual [1]; [5],1.27
CC(Nc1ncnc2nc[nH]c12)c1nc2ccc(F)cc2c(=O)n1-c1ccccc1 (stereo unspecified) (library stock concentration (final ~1000-fold dilution): 10 mM),IRF Lucia reporter activity,RAW-Dual [2]; [6],0.709
same,IRF Lucia reporter activity,RAW-Dual [2]; agonist: LPS (TLR4) 0.1 ug/mL,1.31
CCN1CCN(C(=O)Cc2ccc(Nc3ncc(F)c(Nc4ccc(C(=O)Nc5ccccc5Cl)cc4)n3)cc2)CC1,IRF Lucia reporter activity,RAW-Dual [1]; [4],0.0524
CCN1CCN(C(=O)Cc2ccc(Nc3ncc(F)c(Nc4ccc(C(=O)Nc5ccccc5Cl)cc4)n3)cc2)CC1 (library stock concentration (final ~1000-fold dilution): 10 mM),IRF Lucia reporter activity,RAW-Dual [3]; [6],0.0304
same,IRF Lucia reporter activity,RAW-Dual [3]; agonist: LPS (TLR4) 0.1 ug/mL,0.113
CNC(=O)Oc1cccc2ccccc12,IRF Lucia reporter activity,RAW-Dual [1]; [5],0.925
CNC(=O)Oc1cccc2ccccc12 (library stock concentration (final ~1000-fold dilution): 10 mM),IRF Lucia reporter activity,RAW-Dual [2]; [6],0.885
same,IRF Lucia reporter activity,RAW-Dual [2]; agonist: LPS (TLR4) 0.1 ug/mL,0.983
O.O=C1C=CCC2C3CCCN4CCCC(CN12)C34 (stereo unspecified) (library stock concentration (final ~1000-fold dilution): 10 mM),IRF Lucia reporter activity,RAW-Dual [2]; [6],0.769
same,IRF Lucia reporter activity,RAW-Dual [2]; agonist: LPS (TLR4) 0.1 ug/mL,1.02
C=CC1C2=CCOC(=O)C2=COC1OC1OC(CO)C(O)C(O)C1O (stereo unspecified),IRF Lucia reporter activity,RAW-Dual [1]; [5],1.17
C=CC1C2=CCOC(=O)C2=COC1OC1OC(CO)C(O)C(O)C1O (stereo unspecified) (library stock concentration (final ~1000-fold dilution): 10 mM),IRF Lucia reporter activity,RAW-Dual [2]; [6],1.11
same,IRF Lucia reporter activity,RAW-Dual [2]; agonist: LPS (TLR4) 0.1 ug/mL,1.25
CC(N)C(=O)NC(CO)C(=O)NC(C(=O)NC(C(=O)NC(C(=O)NC(CC(N)=O)C(=O)NC(Cc1ccc(O)cc1)C(=O)NC(C(N)=O)C(C)O)C(C)O)C(C)O)C(C)O (stereo unspecified) (library stock concentration (final ~1000-fold dilution): 10 mM water),IRF Lucia reporter activity,RAW-Dual [2]; [6],1.26
same,IRF Lucia reporter activity,RAW-Dual [2]; agonist: LPS (TLR4) 0.1 ug/mL,0.925
CCCCC(O)(Cn1cncn1)c1ccc(Cl)cc1Cl (stereo unspecified) (library stock concentration (final ~1000-fold dilution): 10 mM),IRF Lucia reporter activity,RAW-Dual [3]; [6],1.23
same,IRF Lucia reporter activity,RAW-Dual [3]; agonist: LPS (TLR4) 0.1 ug/mL,0.66
ClC(Cl)=C(c1ccc(Cl)cc1)c1ccc(Cl)cc1 (library stock concentration (final ~1000-fold dilution): 10 mM),IRF Lucia reporter activity,RAW-Dual [2]; [6],1.21
same,IRF Lucia reporter activity,RAW-Dual [2]; agonist: LPS (TLR4) 0.1 ug/mL,2.54
ClC(Cl)=C(c1ccc(Cl)cc1)c1ccc(Cl)cc1,IRF Lucia reporter activity,RAW-Dual [1]; [5],1.84
COc1ccc(N(C(=O)Oc2c(C)cccc2C)c2ccnc(Nc3ccc(N4CCN(C)CC4)cc3)n2)c(OC)c1 (library stock concentration (final ~1000-fold dilution): 10 mM),IRF Lucia reporter activity,RAW-Dual [2]; [6],0.582
same,IRF Lucia reporter activity,RAW-Dual [2]; agonist: LPS (TLR4) 0.1 ug/mL,1.45
COc1ccc(N(C(=O)Oc2c(C)cccc2C)c2ccnc(Nc3ccc(N4CCN(C)CC4)cc3)n2)c(OC)c1,IRF Lucia reporter activity,RAW-Dual [1]; [5],1.01
COC1=C[C@@H]2[C@@H]3Cc4ccc(OC)c(O)c4[C@]2(CCN3C)CC1=O (library stock concentration (final ~1000-fold dilution): 10 mM),IRF Lucia reporter activity,RAW-Dual [2]; [6],0.9
same,IRF Lucia reporter activity,RAW-Dual [2]; agonist: LPS (TLR4) 0.1 ug/mL,1.22
CC12NC(Cc3ccccc31)c1ccccc12.O=C(O)/C=C\C(=O)O (stereo unspecified),IRF Lucia reporter activity,RAW-Dual [1]; [5],1.1
CC12NC(Cc3ccccc31)c1ccccc12.O=C(O)/C=C\C(=O)O (stereo unspecified) (library stock concentration (final ~1000-fold dilution): 10 mM),IRF Lucia reporter activity,RAW-Dual [2]; [6],1.04
same,IRF Lucia reporter activity,RAW-Dual [2]; agonist: LPS (TLR4) 0.1 ug/mL,0.977
Cl.O=C1CCC2(O)C3Cc4ccc(O)c5c4C2(CCN3CC2CC2)C1O5 (stereo unspecified) (library stock concentration (final ~1000-fold dilution): 10 mM),IRF Lucia reporter activity,RAW-Dual [2]; [6],0.982
same,IRF Lucia reporter activity,RAW-Dual [2]; agonist: LPS (TLR4) 0.1 ug/mL,0.99
Cl.O=C1CCC2(O)C3Cc4ccc(O)c5c4C2(CCN3CC2CC2)C1O5 (stereo unspecified),IRF Lucia reporter activity,RAW-Dual [1]; [5],0.989
